Results: PubChem BioAssay AID1468 (National Center for Advancing Translational Sciences (NCATS), 2008)
The whole screen tested about 280,000 compounds, of which about 1,100 (0.39%) were called active. The shares of active, inactive and inconclusive entries below differ from those in the screen. The call rests on the fitted dose curve; in most records, active means well fitted inhibition curve with a large enough effect; inconclusive means small, poorly fitted or top-dose-only effect, or effect the other way; inactive means flat fitted curve, though single readings scatter. Potencies beside an inconclusive call are fits to weak or partial responses and may not hold up.

Target: Microtubule-associated protein tau (Homo sapiens) (UniProt P10636)
Chain of UniProt P10636 (P10636 whole entry, looked up): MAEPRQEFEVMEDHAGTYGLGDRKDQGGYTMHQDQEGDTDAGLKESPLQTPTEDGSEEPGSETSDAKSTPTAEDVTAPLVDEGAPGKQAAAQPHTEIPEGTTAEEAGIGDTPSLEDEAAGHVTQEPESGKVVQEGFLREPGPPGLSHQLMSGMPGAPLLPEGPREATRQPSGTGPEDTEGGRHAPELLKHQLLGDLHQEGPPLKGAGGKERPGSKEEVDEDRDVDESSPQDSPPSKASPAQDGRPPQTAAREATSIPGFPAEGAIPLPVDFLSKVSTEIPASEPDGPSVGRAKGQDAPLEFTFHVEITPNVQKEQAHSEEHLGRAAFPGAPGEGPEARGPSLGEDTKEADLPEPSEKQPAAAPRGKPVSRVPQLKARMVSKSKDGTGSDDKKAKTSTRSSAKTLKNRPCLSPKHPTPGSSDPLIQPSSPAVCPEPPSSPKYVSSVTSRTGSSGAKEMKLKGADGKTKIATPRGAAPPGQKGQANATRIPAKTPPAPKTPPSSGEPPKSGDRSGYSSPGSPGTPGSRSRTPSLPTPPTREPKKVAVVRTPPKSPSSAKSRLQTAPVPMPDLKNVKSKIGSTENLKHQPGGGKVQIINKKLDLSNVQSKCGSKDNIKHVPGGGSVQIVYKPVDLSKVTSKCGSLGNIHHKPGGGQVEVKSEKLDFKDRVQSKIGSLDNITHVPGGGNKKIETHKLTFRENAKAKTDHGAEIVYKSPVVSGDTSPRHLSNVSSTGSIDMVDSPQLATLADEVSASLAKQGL
Assay: qHTS for Inhibitors of Tau Fibril Formation, Fluorescence Polarization; further: nearly all actives have a fitted effect of over 55% in size
Details: K18 P301L tau heparin fibrillization, Alexa594 FP, 6 h; series mostly up to 57.7 µM
Method in brief: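 Compound effects on tau fibrillization are measured by Alexa 594 fluorescence polarization (ex 555, em 632 nm). K18 P301L tau is used at 15 uM with 0.24 uM labeled tracer, and 20 uM heparin induces aggregation over 6 hr at 37 C.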
On the % scale 0 is the no-effect control and ±100 the full control effect; potency means the concentration at half of the fitted maximal effect; tags describe the fitted curve by direction and shape.

Potency, inactive:
CC1CCN(S(=O)(=O)c2ccc(N/N=C(/C#N)C(N)=O)cc2)CC1
O=C(NCC(=O)N(c1cccnc1)C(C(=O)NC1CCCC1)c1ccc(F)cc1)c1ccco1 (configuration not stated)
Clc1cccc(CN2CCC(Cc3ccccc3)CC2)c1
COc1ccc2c(c1)c1c(c(=O)n(-c3cccc(C)c3)c(=O)n1CC(=O)NCCC1=CCCCC1)n2C
O=C(Nc1ccccc1C(F)(F)F)N1CCCCCC1
CCn1c(SCC(N)=O)nc2sc3c(c2c1=O)CCCC3
CC(=O)c1ccc(Nc2cc(C)nc3nc(Cc4ccccc4)nn23)cc1
O=C(c1ccco1)N1CCN(C(c2ccc(Cl)cc2)c2nnnn2Cc2ccccc2)CC1 (configuration not stated)
CCOc1cc(C=O)cc(Br)c1OCC(=O)NCCc1ccccc1
CCOc1ccc(NC(=O)c2c(NCc3cc(OC)c(OC)cc3OC)sc3c2CCCC3)cc1
CCOC(=O)N1CCN(C(=O)CSCc2nc(-c3ccccc3F)oc2C)CC1
Cc1ccc(OCCC(=O)NCCc2ccc(S(N)(=O)=O)cc2)cc1
CCCCCCNC(=O)c1cc(-c2ccco2)nc2ccccc12
O=C(COC(=O)CC12CC3CC(CC(C3)C1)C2)Nc1ncc(Cl)cc1Cl
C/C(=N\NC(=O)CSc1ncccn1)c1ccc2c(c1)OCCO2
CCC1=C2CC[C@H]3C(=O)N(C)C(=O)[C@H]3[C@H]2[C@@]2(Cc3ccccc3)C(=NCC3CC3)OC(=O)N2C1=O
CC1(C)Cc2c(oc3ncn4ncnc4c23)CO1
COc1cccc(Cn2c(=O)n(Cc3ccccc3)c(=O)c3c2c2cc(OC)ccc2n3C)c1
Cc1cc(N2CCOCC2)ccc1/C=C1\SC(=O)N(C(C)C)C1=O
Cc1cccc(N2CCN(C(=O)c3cnn(-c4ccccc4)c3C3CCN(C(=O)OC(C)(C)C)CC3)CC2)c1C
CCOc1ccc(NC(=O)CSc2nc3ccccc3c(=O)n2CCCC(=O)NCCCN2CCCC2=O)cc1

Potency, inconclusive:
CC[n+]1c(/C=C2\C=C(C)CC(C)C2)sc2ccccc21 (configuration not stated) 17.8 µM [inhibitor, partial curve]
C=C(C)C(=O)c1ccc(OC)cc1 7.08 µM [inhibitor, single point]
CCCCOC(=O)c1ccc(NC2=NS(=O)(=O)c3ccccc32)cc1 5.62 µM [inhibitor, partial curve]
COc1ccc(CNc2ncnc3c2cnn3-c2ccc(Cl)cc2)cc1 0.447 µM [inhibitor, full curve, poor fit]
COc1cccc(-c2ccc3c(N)c(C(=O)c4ccc(F)cc4)sc3n2)c1 10 µM [inhibitor, partial curve, poor fit]
Cc1ccc(Nc2nc(CSc3nnc(-c4cccnc4)n3-c3ccccc3F)cs2)cc1 31.6 µM [activator, single point]
Cc1cc(N2CCN(C)CC2)nc2ccc(NC(=O)Nc3ccc(F)cc3F)cc12 3.16 µM [activator, single point]
Fc1ccccc1C1c2cccn2CCN1C(=S)Nc1cccc(Br)c1 (configuration not stated) 10 µM [inhibitor, partial curve]
CCOC(=O)c1c(-c2ccc(OC)c(OC)c2)csc1NC(=O)c1ccccc1F 0.708 µM [inhibitor, full curve, poor fit]
CC(C)N(C(=S)Nc1cccc(S(=O)(=O)N(C)C)c1)c1ccccc1 17.8 µM [inhibitor, partial curve]
O=C1C(Cl)=C(Nc2ccccc2O)C(=O)N1CCc1ccccc1 14.1 µM [inhibitor, partial curve]
Cc1ccc(S(=O)(=O)N(C)c2ccc(OCC(=O)Nc3nc4c(ccc5ccccc54)s3)cc2)cc1 20 µM [inhibitor, single point]
CC(NC(=O)c1cc2ccccc2o1)c1cccs1 (configuration not stated) 0.398 µM [inhibitor, full curve]
CCN(c1ccccc1)S(=O)(=O)c1ccc(NC(=O)c2nc(S(C)(=O)=O)ncc2Cl)cc1 44.7 µM [inhibitor, single point]
COc1cc(NC(=O)c2ccno2)cc(C(=O)Nc2cccc(C(F)(F)F)c2)c1 35.5 µM [inhibitor, partial curve, poor fit]
O=c1cc(CSc2nnc(COc3ccc(Cl)cc3)o2)c2ccccc2[nH]1 0.398 µM [inhibitor, full curve]
CSCc1ccc(C(=O)NCc2ccc(C)cc2)cc1 44.7 µM [inhibitor, single point]
O=C(NC1CC(=O)N(c2ccc(Cl)cc2)C1)c1cc2ccccc2o1 (configuration not stated) 44.7 µM [inhibitor, single point]
COCCNS(=O)(=O)c1cc(C(=O)O)ccc1OC 5.62 µM [inhibitor, single point]
COC(=O)c1c(-c2ccc(C)cc2)csc1NC(=S)NC(=O)c1ccc(F)cc1 44.7 µM [inhibitor, single point]
CCC1(C)CC(=O)c2c(ccc3oc(C(=O)Nc4ccc(C(C)=O)cc4)c(C)c23)O1 (configuration not stated) 15.8 µM [inhibitor, partial curve]
N#C/C(=C/c1ccc(N2CCCCCC2)o1)c1ccc(Cl)cc1 39.8 µM [inhibitor, single point]
O=C(O)Cn1ncc2c1-c1ccoc1CC2 39.8 µM [inhibitor, single point]
O=C(O)CC(C(=O)O)N1C(=O)/C(=C/c2ccc(-c3nc4ccccc4s3)o2)SC1=S (configuration not stated) 28.2 µM [activator, single point]
CCOC(=O)/C=c1\s/c(=C\c2ccc(C)cc2)c(=O)n1CC(=O)NCc1ccco1 15.8 µM [inhibitor, partial curve]
O=C(Cc1ccc(Cl)cc1)Nc1ccc2oc(-c3ccc(F)cc3)nc2c1 20 µM [inhibitor, partial curve]
CCN(CC)Cc1cc(O)c(CN(CC)CC)cc1O 15.8 µM [inhibitor, partial curve]
O=S(=O)(c1ccccc1)n1nc(-c2ccc(Cl)cc2)nc1NCc1ccccc1 25.1 µM [inhibitor, partial curve]
CCOc1cccc2cc(-c3nnc(NCc4ccco4)s3)c(=O)oc12 17.8 µM [inhibitor, single point]
O=C(/C=C/c1cn(-c2ccccc2)nc1-c1cccs1)NCCN1CCOCC1 31.6 µM [inhibitor, partial curve]
O=c1cc(CSc2nnnn2-c2ccccc2)nc(Nc2ccc(F)cc2)[nH]1 14.1 µM [inhibitor, partial curve]
CC(=O)c1ccc(N2CCC(c3cc(-c4ccc(Cl)cc4Cl)n[nH]3)CC2)c([N+](=O)[O-])c1 14.1 µM [inhibitor, partial curve]
COc1ccc(C(CCO)NC(=O)c2cccs2)cc1OC (configuration not stated) 22.4 µM [inhibitor, single point]
Cc1c(/C=N/NC(=O)c2cccnc2)c2ccccn2c1C(=O)c1ccc(F)cc1 25.1 µM [activator, partial curve, poor fit]
CCOC(=O)N1CCC(N(CCN(C)C)C(=S)Nc2ccc(Oc3ccccc3)cc2)CC1 11.2 µM [activator, partial curve, poor fit]
O=C(Nc1nnc(SCc2ccccc2)s1)c1cccc([N+](=O)[O-])c1 3.55 µM [activator, partial curve]
Cc1cccc2[nH]c3c(N4CC=C(c5ccc(F)cc5)CC4)ncnc3c12 2 µM [activator, partial curve, poor fit]
COC(=O)CN(C(=S)Nc1ccc(F)cc1)C1CC(=O)N(c2ccccc2)C1=O (configuration not stated) 0.447 µM [inhibitor, full curve, poor fit]
CCCN1CCCc2cc(CN(CCCN3CCOCC3)C(=O)Nc3ccc(Cl)c(Cl)c3)ccc21 1.78 µM [activator, full curve, poor fit]
CN1CCc2c(sc3c2C(=O)NC(c2ccco2)N3)C1 (configuration not stated) 22.4 µM [inhibitor, single point]
COc1ccc(-c2csc(NC(=O)c3ccc(S(=O)(=O)N4CCc5ccccc5C4)cc3)n2)cc1 28.2 µM [inhibitor, partial curve]
CCCCC(=O)Nc1ccc(C(=O)Nc2ccc(OC)cc2[N+](=O)[O-])cc1 1 µM [activator, full curve, poor fit]
CCN(CC)c1ccc(/C=C(\C#N)c2nc(-c3cccs3)c(NC(C)=O)s2)cc1 2.82 µM [activator, single point]
Cc1ccccc1CSc1ccc(-c2ccc3c(c2)OCO3)nn1 3.98 µM [inhibitor, single point]
CCOC(=O)c1ccc2c(c1)C1C=CCC1C(C(=O)O)N2 (configuration not stated) 39.8 µM [inhibitor, single point]

activity, negative = inhibition, inactive:
C=CCOCC1CN2C(CCC(C)C2c2ccc(Br)cc2)C(=O)O1 (configuration not stated) 0.0247% [at 11.6 µM]
